Laboratory results published in PMC9911399, “Two distinct binding modes provide the RNA-binding protein RbFox with extraordinary sequence specificity”.
Residue numbers refer to the chain shown, from its start. Some of the results follow.

T1: RBFOX1 RRM RbFoxmut (Fox-RRM*) (Homo sapiens, UniProt Q9NWB1 109-208, R118D;E147R;N151S;E152T)
T1 sequence: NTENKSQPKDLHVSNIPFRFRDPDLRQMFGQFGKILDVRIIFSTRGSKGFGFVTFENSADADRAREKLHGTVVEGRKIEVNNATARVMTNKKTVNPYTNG

B1: AUUAUUG (DNA:RNA)
RNA: GGGAGACCGGAAUUCAGAUUGUCCAUUAUUGUUAAAUCCCGUCGUAGCCACCA
DNA 1: CAATCTGAATTCCGGTCTCCC
DNA 2: TGGTGGCTACGACGGGATT
B2: ACUCGGU (DNA:RNA)
RNA: B1 RNA with U26C, A28C, U29G, U30G, G31U
DNA 1: CAATCTGAATTCCGGTCTCCC
DNA 2: TGGTGGCTACGACGGGATT
B3: AUACUAU (DNA:RNA)
RNA: B1 RNA with U27A, A28C, U30A, G31U
DNA 1: CAATCTGAATTCCGGTCTCCC
DNA 2: TGGTGGCTACGACGGGATT
B4: CUAUCUC (DNA:RNA)
RNA: B1 RNA with A25C, U27A, A28U, U29C, G31C
DNA 1: CAATCTGAATTCCGGTCTCCC
DNA 2: TGGTGGCTACGACGGGATT
B5: AGAUAUA (DNA:RNA)
RNA: B1 RNA with U26G, U27A, A28U, U29A, G31A
DNA 1: CAATCTGAATTCCGGTCTCCC
DNA 2: TGGTGGCTACGACGGGATT
B6: AUUAGCG (DNA:RNA)
RNA: B1 RNA with U29G, U30C
DNA 1: CAATCTGAATTCCGGTCTCCC
DNA 2: TGGTGGCTACGACGGGATT
B7: UAAUGUA (DNA:RNA)
RNA: B1 RNA with A25U, U26A, U27A, A28U, U29G, G31A
DNA 1: CAATCTGAATTCCGGTCTCCC
DNA 2: TGGTGGCTACGACGGGATT
B8: GCAAUUA (DNA:RNA)
RNA: B1 RNA with A25G, U26C, U27A, G31A
DNA 1: CAATCTGAATTCCGGTCTCCC
DNA 2: TGGTGGCTACGACGGGATT
B9: CACCGCA (DNA:RNA)
RNA: GGGAGACCGGAAUUCAGAUUGUCCCACCGCAUUAAAUCCCGUCGUAGCCACCA
DNA 1: CAATCTGAATTCCGGTCTCCC
DNA 2: TGGTGGCTACGACGGGATT
B10: AUGAUGG (DNA:RNA)
RNA: B1 RNA with U27G, U30G
DNA 1: CAATCTGAATTCCGGTCTCCC
DNA 2: TGGTGGCTACGACGGGATT
B11: CCGCAUA (DNA:RNA)
RNA: B9 RNA with A26C, C27G, G29A, C30U
DNA 1: CAATCTGAATTCCGGTCTCCC
DNA 2: TGGTGGCTACGACGGGATT
B12: UCACCAA (DNA:RNA)
RNA: B9 RNA with C25U, A26C, C27A, G29C, C30A
DNA 1: CAATCTGAATTCCGGTCTCCC
DNA 2: TGGTGGCTACGACGGGATT
B13: GAAAAAG (DNA:RNA)
RNA: B1 RNA with A25G, U26A, U27A, U29A, U30A
DNA 1: CAATCTGAATTCCGGTCTCCC
DNA 2: TGGTGGCTACGACGGGATT
B14: GGAGCUU (DNA:RNA)
RNA: B1 RNA with A25G, U26G, U27A, A28G, U29C, G31U
DNA 1: CAATCTGAATTCCGGTCTCCC
DNA 2: TGGTGGCTACGACGGGATT
B15: CCGGUGU (DNA:RNA)
RNA: B1 RNA with A25C, U26C, U27G, A28G, U30G, G31U
DNA 1: CAATCTGAATTCCGGTCTCCC
DNA 2: TGGTGGCTACGACGGGATT
B16: UUAGACA (DNA:RNA)
RNA: B9 RNA with C25U, A26U, C27A, C28G, G29A
DNA 1: CAATCTGAATTCCGGTCTCCC
DNA 2: TGGTGGCTACGACGGGATT
B17: AAUCCAG (DNA:RNA)
RNA: B1 RNA with U26A, A28C, U29C, U30A
DNA 1: CAATCTGAATTCCGGTCTCCC
DNA 2: TGGTGGCTACGACGGGATT
B18: CCGUAAG (DNA:RNA)
RNA: B1 RNA with A25C, U26C, U27G, A28U, U29A, U30A
DNA 1: CAATCTGAATTCCGGTCTCCC
DNA 2: TGGTGGCTACGACGGGATT
B19: UUGAACC (DNA:RNA)
RNA: B1 RNA with A25U, U27G, U29A, U30C, G31C
DNA 1: CAATCTGAATTCCGGTCTCCC
DNA 2: TGGTGGCTACGACGGGATT
B20: CGGUAUA (DNA:RNA)
RNA: B9 RNA with A26G, C27G, C28U, G29A, C30U
DNA 1: CAATCTGAATTCCGGTCTCCC
DNA 2: TGGTGGCTACGACGGGATT
B21: GAGCUAC (DNA:RNA)
RNA: B9 RNA with C25G, C27G, G29U, C30A, A31C
DNA 1: CAATCTGAATTCCGGTCTCCC
DNA 2: TGGTGGCTACGACGGGATT
B22: UGGUAAU (DNA:RNA)
RNA: GGGAGACCGGAAUUCAGAUUGUCCUGGUAAUUUAAAUCCCGUCGUAGCCACCA
DNA 1: CAATCTGAATTCCGGTCTCCC
DNA 2: TGGTGGCTACGACGGGATT
B23: AGUUCGG (DNA:RNA)
RNA: B1 RNA with U26G, A28U, U29C, U30G
DNA 1: CAATCTGAATTCCGGTCTCCC
DNA 2: TGGTGGCTACGACGGGATT
B24: UACGUGA (DNA:RNA)
RNA: B9 RNA with C25U, C28G, G29U, C30G
DNA 1: CAATCTGAATTCCGGTCTCCC
DNA 2: TGGTGGCTACGACGGGATT
B25: CAUCAAG (DNA:RNA)
RNA: B9 RNA with C27U, G29A, C30A, A31G
DNA 1: CAATCTGAATTCCGGTCTCCC
DNA 2: TGGTGGCTACGACGGGATT
B26: GUCCUCU (DNA:RNA)
RNA: B9 RNA with C25G, A26U, G29U, A31U
DNA 1: CAATCTGAATTCCGGTCTCCC
DNA 2: TGGTGGCTACGACGGGATT
B27: CAAAAGC (DNA:RNA)
RNA: B9 RNA with C27A, C28A, G29A, C30G, A31C
DNA 1: CAATCTGAATTCCGGTCTCCC
DNA 2: TGGTGGCTACGACGGGATT
B28: GACGAUC (DNA:RNA)
RNA: B9 RNA with C25G, C28G, G29A, C30U, A31C
DNA 1: CAATCTGAATTCCGGTCTCCC
DNA 2: TGGTGGCTACGACGGGATT
B29: CCGUGGU (DNA:RNA)
RNA: B22 RNA with U25C, G26C, A29G, A30G
DNA 1: CAATCTGAATTCCGGTCTCCC
DNA 2: TGGTGGCTACGACGGGATT
B30: CAAGCCC (DNA:RNA)
RNA: B9 RNA with C27A, C28G, G29C, A31C
DNA 1: CAATCTGAATTCCGGTCTCCC
DNA 2: TGGTGGCTACGACGGGATT
B31: GCUCGCA (DNA:RNA)
RNA: B9 RNA with C25G, A26C, C27U
DNA 1: CAATCTGAATTCCGGTCTCCC
DNA 2: TGGTGGCTACGACGGGATT

These binders were tested against T1, RBFOX1 RRM RbFoxmut (Fox-RRM*) (assay: EMSA; HiTS-Eq, 1 nM pool, 10 min; buffer printed only for the single-RNA assays: 10 mM Tris pH 7.5, 150 mM NaCl, 3.4 mM EDTA, 0.001% NP-40, 30 C). Conditions: tags: His6 N-terminal (pET28a); label: 5' 32P.
Procedure, shortened: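 Relative association constants, normalised to the cognate motif, were derived by comparing read counts of each RNA species with those of the control reaction. The RNA sequenced was the free fraction, separated by 8% native PAGE after a 10 min equilibration in 50 µL of 1 nM 5′-radiolabelled RNA (7 randomized nucleotides) with increasing concentrations of purified wild-type or mutant RbFox RRM.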
B1 was tested, and the binding signal was 0.14 KA relative to UGCAUGU. In the case of B2, the binding signal is reported as 0.127 KA relative to UGCAUGU. With B3 the binding signal was 0.101 KA relative to UGCAUGU. For B4, the binding signal was 0.065 KA relative to UGCAUGU. B5 was tested, and the binding signal was 0.165 KA relative to UGCAUGU. In the case of B6, the binding signal is reported as 0.125 KA relative to UGCAUGU. With B7 the binding signal was 0.139 KA relative to UGCAUGU. For B8, the binding signal was 0.0955 KA relative to UGCAUGU. For B9, the binding signal was 0.149 KA relative to UGCAUGU. For B10, the binding signal was 0.11 KA relative to UGCAUGU. For B11, the binding signal was 0.122 KA relative to UGCAUGU. B12 was tested, and the binding signal was 0.0801 KA relative to UGCAUGU. B13 was tested, and the binding signal was 0.0819 KA relative to UGCAUGU. B14 was tested, and the binding signal was 0.0612 KA relative to UGCAUGU. For B15, the binding signal was 0.119 KA relative to UGCAUGU. In the case of B16, the binding signal is reported as 0.0604 KA relative to UGCAUGU. In the case of B17, the binding signal is reported as 0.103 KA relative to UGCAUGU. In the case of B18, the binding signal is reported as 0.111 KA relative to UGCAUGU. With B19 the binding signal was 0.129 KA relative to UGCAUGU. For B20, the binding signal was 0.0918 KA relative to UGCAUGU. In the case of B21, the binding signal is reported as 0.0827 KA relative to UGCAUGU. With B22 the binding signal was 0.121 KA relative to UGCAUGU. In the case of B23, the binding signal is reported as 0.109 KA relative to UGCAUGU. For B24, the binding signal was 0.0934 KA relative to UGCAUGU. For B25, the binding signal was 0.112 KA relative to UGCAUGU. For B26, the binding signal was 0.0929 KA relative to UGCAUGU. B27 was tested, and the binding signal was 0.0716 KA relative to UGCAUGU. With B28 the binding signal was 0.0463 KA relative to UGCAUGU. In the case of B29, the binding signal is reported as 0.1 KA relative to UGCAUGU. B30 was tested, and the binding signal was 0.083 KA relative to UGCAUGU. B31 was tested, and the binding signal was 0.123 KA relative to UGCAUGU.
